The chains are these.
B1: TEV protease; numbered along this chain (parent)
chain: MGESLFKGPRDYNPISSSICHLTNESDGHTTSLYGIGFGPFIITNKHLFRRNNGTLVVQSLHGVFKVKDTTTLQQHLVDGRDMIIIRMPKDFPPFPQKLKFREPQREERICLVTTNFQTKSMSSMVSDTSCTFPSGDGIFWKHWIQTKDGQCGSPLVSTRDGFIVGIHSASNFTNTNNYFTSVPKNFMELLTNQEAQQWVSGWRLNADSVLWGGHKVFMVKPEEPFQPVKEATQL

The test covers variants of B1. Kind of test: raw area under fraction-flipped curve 0-4 h after induction (AUC4h, not background-subtracted), DNA-recorder readout of cleavage of the substrate (dimensionless); higher = more cleavage of the substrate by the protease variant. As to conditions: temperature: 34 °C; time window: 0-4 h after rhamnose induction. The protocol:
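In vivo DNA recorder in E. coli TOP10(DE3) ΔrhaA at 34 °C. Each TEVp single-site mutant (parent TEVp 0) is paired with a single-site variant of the 7-mer TEVs (canonical ENLYFQ|S). The substrate sits between flexible linkers in a Bxb1-sfGFP-TEVs-SsrA fusion, so cleavage stabilises Bxb1 and speeds flipping of a recombination array, read by NGS. The value is the raw area under the fraction-flipped curve over 0-4 h after rhamnose induction (AUC4h), with ≥20 reads per time point. It is not background-subtracted; inactive controls average about 0.047.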

The other results are listed elsewhere or left out. The full chains were built here from the parent and the listed change. Inactive controls read about 0.05.
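Further: Bxb1 expression induced with 0.2% (w/v) L-rhamnose at OD600 near 0.5, cultures sampled hourly, flipped fraction per protease–substrate barcode pair counted by paired-end Illumina sequencing.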

As to MGESLFKGPRKYNPISSSICHLTNESDGHTTSLYGIGFGPFIITNKHLFRRNNGTLVVQSLHGVFKVKDTTTLQQHLVDGRDMIIIRMPKDFPPFPQKLKFREPQREERICLVTTNFQTKSMSSMVSDTSCTFPSGDGIFWKHWIQTKDGQCGSPLVSTRDGFIVGIHSASNFTNTNNYFTSVPKNFMELLTNQEAQQWVSGWRLNADSVLWGGHKVFMVKPEEPFQPVKEATQL [D11K], the “area with substrate ENLYFAS” value was 0.0529, the “area with substrate ENLYFCS” value is 0.0714, the “area with substrate ENLYFES” value is 0.0591 and the “area with substrate ENLYFFS” value turned out to be 0.0406. In addition, the “area with substrate ENLYFGS” value came to 0.0471, the “area with substrate ENLYFIS” value turned out to be 0.0701, the “area with substrate ENLYFKS” value was 0.0527 and the “area with substrate ENLYFMS” value is 0.0679. Further, the “area with substrate ENLYFPS” value turned out to be 0.0658, the “area with substrate ENLYFSS” value is 0.0501, the “area with substrate ENLYFTS” value amounted to 0.0577 and the “area with substrate ENLYFWS” value amounted to 0.0533. Further, the “area with substrate ENLYFYS” value was found to be 0.0482.

As to MGESLFKGPRIYNPISSSICHLTNESDGHTTSLYGIGFGPFIITNKHLFRRNNGTLVVQSLHGVFKVKDTTTLQQHLVDGRDMIIIRMPKDFPPFPQKLKFREPQREERICLVTTNFQTKSMSSMVSDTSCTFPSGDGIFWKHWIQTKDGQCGSPLVSTRDGFIVGIHSASNFTNTNNYFTSVPKNFMELLTNQEAQQWVSGWRLNADSVLWGGHKVFMVKPEEPFQPVKEATQL [D11I], the “area with substrate ENLYFAS” value came out at 0.0536, the “area with substrate ENLYFES” value turned out to be 0.0457, the “area with substrate ENLYFHS” value worked out at 0.0618 and the “area with substrate ENLYFIS” value was determined as 0.0554. Besides, the “area with substrate ENLYFLS” value was 0.0656, the “area with substrate ENLYFNS” value worked out at 0.0795, the “area with substrate ENLYFRS” value worked out at 0.063 and the “area with substrate ENLYFTS” value turned out to be 0.0862. In addition, the “area with substrate ENLYFWS” value stood at 0.0634 and the “area with substrate ENLYFYS” value came to 0.0477.

For the variant MGGSLFKGPRDYNPISSSICHLTNESDGHTTSLYGIGFGPFIITNKHLFRRNNGTLVVQSLHGVFKVKDTTTLQQHLVDGRDMIIIRMPKDFPPFPQKLKFREPQREERICLVTTNFQTKSMSSMVSDTSCTFPSGDGIFWKHWIQTKDGQCGSPLVSTRDGFIVGIHSASNFTNTNNYFTSVPKNFMELLTNQEAQQWVSGWRLNADSVLWGGHKVFMVKPEEPFQPVKEATQL [E3G], the “area with substrate ENLYFAS” value turned out to be 0.061, the “area with substrate ENLYFCS” value came out at 0.0707, the “area with substrate ENLYFES” value turned out to be 0.0647 and the “area with substrate ENLYFFS” value stood at 0.0587. In addition, the “area with substrate ENLYFGS” value was found to be 0.0626, the “area with substrate ENLYFHS” value is 0.0561, the “area with substrate ENLYFIS” value was 0.0532 and the “area with substrate ENLYFKS” value was 0.069. The “area with substrate ENLYFLS” value stood at 0.0633, the “area with substrate ENLYFMS” value was determined as 0.0678, the “area with substrate ENLYFNS” value turned out to be 0.0645 and the “area with substrate ENLYFPS” value was 0.0606. Besides, the “area with substrate ENLYFRS” value amounted to 0.0552, the “area with substrate ENLYFSS” value came to 0.0586, the “area with substrate ENLYFTS” value worked out at 0.0593 and the “area with substrate ENLYFVS” value came to 0.0691. Moreover, the “area with substrate ENLYFWS” value was 0.0706.

For the variant MGESQFKGPRDYNPISSSICHLTNESDGHTTSLYGIGFGPFIITNKHLFRRNNGTLVVQSLHGVFKVKDTTTLQQHLVDGRDMIIIRMPKDFPPFPQKLKFREPQREERICLVTTNFQTKSMSSMVSDTSCTFPSGDGIFWKHWIQTKDGQCGSPLVSTRDGFIVGIHSASNFTNTNNYFTSVPKNFMELLTNQEAQQWVSGWRLNADSVLWGGHKVFMVKPEEPFQPVKEATQL [L5Q], the “area with substrate ENLYFAS” value worked out at 0.0507, the “area with substrate ENLYFCS” value turned out to be 0.0554, the “area with substrate ENLYFES” value was determined as 0.0678 and the “area with substrate ENLYFFS” value came out at 0.0663. The “area with substrate ENLYFGS” value was 0.0627, the “area with substrate ENLYFHS” value turned out to be 0.0735, the “area with substrate ENLYFIS” value amounted to 0.0478 and the “area with substrate ENLYFKS” value is 0.0574. In addition, the “area with substrate ENLYFMS” value amounted to 0.0668, the “area with substrate ENLYFNS” value is 0.062, the “area with substrate ENLYFPS” value turned out to be 0.0593 and the “area with substrate ENLYFRS” value was found to be 0.0703. Moreover, the “area with substrate ENLYFSS” value came to 0.0548, the “area with substrate ENLYFTS” value worked out at 0.0472, the “area with substrate ENLYFVS” value amounted to 0.0648 and the “area with substrate ENLYFWS” value is 0.0456. Also, the “area with substrate ENLYFYS” value worked out at 0.0543.

Take MGEPLFKGPRDYNPISSSICHLTNESDGHTTSLYGIGFGPFIITNKHLFRRNNGTLVVQSLHGVFKVKDTTTLQQHLVDGRDMIIIRMPKDFPPFPQKLKFREPQREERICLVTTNFQTKSMSSMVSDTSCTFPSGDGIFWKHWIQTKDGQCGSPLVSTRDGFIVGIHSASNFTNTNNYFTSVPKNFMELLTNQEAQQWVSGWRLNADSVLWGGHKVFMVKPEEPFQPVKEATQL [S4P]: the “area with substrate ENLYFAS” value worked out at 0.06, the “area with substrate ENLYFCS” value came to 0.0646, the “area with substrate ENLYFES” value was found to be 0.0674 and the “area with substrate ENLYFFS” value was 0.0666. Besides, the “area with substrate ENLYFHS” value is 0.0674, the “area with substrate ENLYFIS” value amounted to 0.0614, the “area with substrate ENLYFKS” value is 0.06 and the “area with substrate ENLYFMS” value was 0.0709. In addition, the “area with substrate ENLYFNS” value is 0.0645, the “area with substrate ENLYFPS” value was determined as 0.0576, the “area with substrate ENLYFRS” value was 0.0553 and the “area with substrate ENLYFSS” value was 0.0763. Also, the “area with substrate ENLYFTS” value was 0.0536, the “area with substrate ENLYFVS” value was 0.0508 and the “area with substrate ENLYFWS” value came out at 0.0651.

As for MGEVLFKGPRDYNPISSSICHLTNESDGHTTSLYGIGFGPFIITNKHLFRRNNGTLVVQSLHGVFKVKDTTTLQQHLVDGRDMIIIRMPKDFPPFPQKLKFREPQREERICLVTTNFQTKSMSSMVSDTSCTFPSGDGIFWKHWIQTKDGQCGSPLVSTRDGFIVGIHSASNFTNTNNYFTSVPKNFMELLTNQEAQQWVSGWRLNADSVLWGGHKVFMVKPEEPFQPVKEATQL [S4V], the “area with substrate ENLYFAS” value came to 0.0066, the “area with substrate ENLYFCS” value was 0.0632, the “area with substrate ENLYFDS” value is 0.037 and the “area with substrate ENLYFES” value stood at 0.0672. In addition, the “area with substrate ENLYFFS” value turned out to be 0.0707, the “area with substrate ENLYFIS” value was 0.0733, the “area with substrate ENLYFLS” value is 0.0653 and the “area with substrate ENLYFMS” value was determined as 0.103. In addition, the “area with substrate ENLYFTS” value turned out to be 0.0551, the “area with substrate ENLYFVS” value was found to be 0.0612, the “area with substrate ENLYFWS” value was found to be 0.0495 and the “area with substrate ENLYFYS” value amounted to 0.0584.

Consider MGEELFKGPRDYNPISSSICHLTNESDGHTTSLYGIGFGPFIITNKHLFRRNNGTLVVQSLHGVFKVKDTTTLQQHLVDGRDMIIIRMPKDFPPFPQKLKFREPQREERICLVTTNFQTKSMSSMVSDTSCTFPSGDGIFWKHWIQTKDGQCGSPLVSTRDGFIVGIHSASNFTNTNNYFTSVPKNFMELLTNQEAQQWVSGWRLNADSVLWGGHKVFMVKPEEPFQPVKEATQL [S4E], for which the “area with substrate ENLYFAS” value stood at 0.0596, the “area with substrate ENLYFCS” value worked out at 0.0513, the “area with substrate ENLYFES” value is 0.0693 and the “area with substrate ENLYFFS” value was found to be 0.0873. Moreover, the “area with substrate ENLYFGS” value was determined as 0.0429, the “area with substrate ENLYFHS” value stood at 0.0541, the “area with substrate ENLYFIS” value stood at 0.0614 and the “area with substrate ENLYFKS” value came to 0.0598. For the same variant, the “area with substrate ENLYFMS” value worked out at 0.0873, the “area with substrate ENLYFNS” value is 0.0629, the “area with substrate ENLYFPS” value turned out to be 0.0538 and the “area with substrate ENLYFRS” value was determined as 0.0561. In addition, the “area with substrate ENLYFSS” value was 0.0576, the “area with substrate ENLYFTS” value is 0.0642, the “area with substrate ENLYFWS” value was found to be 0.0559 and the “area with substrate ENLYFYS” value is 0.0633.

As to MGEKLFKGPRDYNPISSSICHLTNESDGHTTSLYGIGFGPFIITNKHLFRRNNGTLVVQSLHGVFKVKDTTTLQQHLVDGRDMIIIRMPKDFPPFPQKLKFREPQREERICLVTTNFQTKSMSSMVSDTSCTFPSGDGIFWKHWIQTKDGQCGSPLVSTRDGFIVGIHSASNFTNTNNYFTSVPKNFMELLTNQEAQQWVSGWRLNADSVLWGGHKVFMVKPEEPFQPVKEATQL [S4K], the “area with substrate ENLYFAS” value came to 0.0564, the “area with substrate ENLYFDS” value was determined as 0.0683, the “area with substrate ENLYFFS” value amounted to 0.0603 and the “area with substrate ENLYFHS” value is 0.0601. Further, the “area with substrate ENLYFIS” value was 0.0519, the “area with substrate ENLYFMS” value is 0.0725, the “area with substrate ENLYFRS” value was 0.0515 and the “area with substrate ENLYFTS” value worked out at 0.0473. Also, the “area with substrate ENLYFWS” value was found to be 0.0624.

Regarding MQESLFKGPRDYNPISSSICHLTNESDGHTTSLYGIGFGPFIITNKHLFRRNNGTLVVQSLHGVFKVKDTTTLQQHLVDGRDMIIIRMPKDFPPFPQKLKFREPQREERICLVTTNFQTKSMSSMVSDTSCTFPSGDGIFWKHWIQTKDGQCGSPLVSTRDGFIVGIHSASNFTNTNNYFTSVPKNFMELLTNQEAQQWVSGWRLNADSVLWGGHKVFMVKPEEPFQPVKEATQL [G2Q], the “area with substrate ENLYFAS” value was determined as 0.0414, the “area with substrate ENLYFCS” value was 0.0839, the “area with substrate ENLYFDS” value was determined as 0.0505 and the “area with substrate ENLYFES” value was 0.062. In addition, the “area with substrate ENLYFFS” value was found to be 0.0703, the “area with substrate ENLYFIS” value came out at 0.0413, the “area with substrate ENLYFKS” value was 0.059 and the “area with substrate ENLYFLS” value is 0.0724. The “area with substrate ENLYFMS” value was determined as 0.0798, the “area with substrate ENLYFTS” value was 0.0337, the “area with substrate ENLYFVS” value was found to be 0.0623 and the “area with substrate ENLYFYS” value is 0.0558.

The record behind these values is the supplement of paper PMC12217912.
